± gives the standard deviation of the averaged measurements. Over roughly 33,000 sequences, “E-score (dimensionless, -0.5 to 0.5)” has its median near -0.046; the highest 2% begin near 0.36. This is one part of the list.
system: T1, SpTbr T-box DNA-binding domain (GST fusion); test: PBM E-score of 8-mer (E-score (dimensionless, -0.5 to 0.5)); Tbr is Tbrain of the sea star Patiria miniata (Pm) or the sea urchin Strongylocentrotus purpuratus (Sp); higher = stronger binding preference; most listed sequences are background and not binding sites; details: the construct has about 5 more residues each side
T1 sequence: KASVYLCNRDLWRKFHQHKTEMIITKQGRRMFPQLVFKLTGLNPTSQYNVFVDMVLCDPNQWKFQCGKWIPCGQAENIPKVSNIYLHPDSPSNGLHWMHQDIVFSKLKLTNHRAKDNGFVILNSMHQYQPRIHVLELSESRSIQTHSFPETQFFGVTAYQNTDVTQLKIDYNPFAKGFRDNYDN
Summary of the method: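 GST-fused Tbr T-box DNA-binding domains (the whole T-box plus about five flanking residues) were expressed in BL21 E. coli at 20 °C and purified by glutathione affinity chromatography. Universal Agilent oligonucleotide arrays were made double-stranded by primer extension, incubated with 200 nM protein in PBS (pH 7.5), then scanned and quantified. Every ungapped 8-mer was scored from probe intensities. The Universal PBM Analysis Suite gave each word an enrichment E-score, averaged over duplicate arrays.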

Sequence | PBM E-score of 8-mer
ATCTGGCA | -0.0745 ± 0.035
CCAGACGA | -0.04605 ± 0.00013
ACGGCAAG | -0.0413 ± 0.04
AATGCCAC | 0.082 ± 0.028
AACAGACG | -0.106 ± 0.075
AAACTTCG | -0.00264 ± 0.024
GCAAAGAC | 0.0383 ± 0.028
ACATCGGC | 0.0326 ± 0.061
GCATTCAC | 0.171 ± 0.017
ACAATAGT | 0.0742 ± 0.009
AAGAATAA | -0.227 ± 0.007
CTGCAAGC | -0.252 ± 0.061
CCAGCAGA | -0.0861 ± 0.052
CATCGGAG | -0.255 ± 0.072
CTGATCAA | 0.0577 ± 0.13
CCAAAAGG | 0.0721 ± 0.04
GTTGATCA | 0.098 ± 0.0032
GAATAGAC | -0.129 ± 0.024
GTGGGTGA | 0.194 ± 0.055
ACTGATGA | -0.0845 ± 0.0026
GAAACCGA | -0.00447 ± 0.019
CCTCAATC | -0.0759 ± 0.033
ACATAATA | -0.0636 ± 0.09
AATCTAGG | -0.293 ± 0.041
ACAGTGTG | 0.338 ± 0.011

Sequence | PBM E-score of 8-mer
AGCGTGTA | 0.0705 ± 0.048
CAAAAGCG | 0.122 ± 0.06
GGAATTCA | -0.127 ± 0.1
ACAAAACT | 0.0767 ± 0.031
CACGGGGG | -0.267 ± 0.033
TGACCTCA | 0.0321 ± 0.076
CTTGGCAA | 0.0153 ± 0.084
CAATGCTG | -0.0295 ± 0.024
GGAGTACA | -0.0355 ± 0.072
CAGATCTG | 0.138 ± 0.044
AATTAAGT | -0.0956 ± 0.033
CGACAAAC | 0.176 ± 0.0053
AATTCAGA | -0.178 ± 0.025
CGTCGTAC | -0.0278 ± 0.053
ACTGGAGC | -0.242 ± 0.028
GGCACGAA | 0.0053 ± 0.037
AGCTGTCA | 0.382 ± 0.022
AACGGCTC | 0.206 ± 0.026
CGCCTTAG | 0.29 ± 0.047
CTCCACTC | -0.0183 ± 0.018
AACGCCCA | 0.195 ± 0.017
CAGAAACC | -0.106 ± 0.08
CACAGGGA | -0.077 ± 0.044
CGTTCGGA | -0.0228 ± 0.00031
CGTGCGTC | -0.00572 ± 0.046

Sequence | PBM E-score of 8-mer
CATTCACC | -0.0478 ± 0.011
CAAGGCTG | -0.0345 ± 0.053
GGCAGTCA | -0.102 ± 0.069
AACGTACA | -0.0208 ± 0.045
GGTAACTA | -0.261 ± 0.038
CGGCCGGC | -0.0637 ± 0.07
CAGGAAAG | 0.1 ± 0.0096
CCTAAAAG | -0.119 ± 0.0035
ACGCGTGA | 0.407 ± 0.0058
ACTGTGGC | 0.0746 ± 0.026
CCTAGCCC | -0.146 ± 0.034
AAAGATGT | 0.0899 ± 0.052
GAGGAGCC | -0.146 ± 0.02
CGTTGATC | -0.0521 ± 0.00074
CACAGGCA | -0.0816 ± 0.1
AACGGAGA | -0.152 ± 0.031
ATATCGCG | 0.281 ± 0.053
CAATCTAA | -0.201 ± 0.013
AGTGTATA | -0.101 ± 0.014
GAGTTCGC | 0.201 ± 0.0041
ACTCCAGG | -0.0824 ± 0.008
GCTAGTAA | -0.149 ± 0.015
CGCGTGAG | 0.313 ± 0.0063
AGCGAGCT | 0.0167 ± 0.06
AGGTTCAC | 0.231 ± 0.04

Sequence | PBM E-score of 8-mer
AAACTACT | 0.147 ± 0.026
GACCGGTA | -0.126 ± 0.0038
AATTCCGC | -0.0532 ± 0.035
AAAAGCAT | -0.204 ± 0.0045
ATGACCAC | 0.0339 ± 0.001
GATTCAAC | -0.0664 ± 0.011
GTGCGGAA | 0.309 ± 0.013
GGACCATA | -0.116 ± 0.02
AGGGACAC | 0.117 ± 0.036
GGGGCTTA | -0.188 ± 0.007
CAGTCTGC | -0.212 ± 0.091
AAACACCG | 0.155 ± 0.0066
ACGATAGC | 0.0829 ± 0.032
AGCGACGC | 0.135 ± 0.053
ACTTTAGA | -0.0684 ± 0.056
ACTTCACG | 0.312 ± 0.018
ACGCATTC | 0.0158 ± 0.03
CACAGATA | -0.0553 ± 0.031
GACAGCGA | 0.0826 ± 0.074
GGATCACC | -0.0658 ± 0.0065
CTTAATTC | -0.0766 ± 0.029
GGTTATTA | -0.187 ± 0.12
ATCACCCA | 0.182 ± 0.0029
GTACGACA | -0.0615 ± 0.04
GGAATCCC | -0.146 ± 0.02

Sequence | PBM E-score of 8-mer
ACCTATTG | 0.0768 ± 0.0017
GCGGCTCC | 0.0339 ± 0.052
AGCACCCG | 0.257 ± 0.011
CCGTGGCA | -0.0826 ± 0.0072
CGCTTAGC | 0.1 ± 0.007
ACGAATAT | -0.0222 ± 0.075
AGCTCTAT | -0.0588 ± 0.064
AGGTAAAC | 0.0131 ± 0.015
CGTGCAAG | 0.08 ± 0.0073
CATATCCG | -0.0533 ± 0.035
GAATCCAC | 0.0252 ± 0.019
CAACGTGC | 0.103 ± 0.022
ATATAGCG | 0.0507 ± 0.04
CTCCGTCC | -0.296 ± 0.029
AGCACCAT | 0.19238 ± 0.00011
CATAAACA | 0.07997 ± 0.00035
ACAGGTCT | -0.0109 ± 0.0033
GTGGAAAC | 0.146 ± 0.018
GAGTACAC | 0.0418 ± 0.013
CTAGGTTA | -0.16 ± 0.08
CGTTTAGC | 0.0935 ± 0.14
AAATTGAG | -0.153 ± 0.021
ATTAGCGG | 0.0476 ± 0.1
AACCCTTG | -0.208 ± 0.01
ATCAGGCG | 0.039 ± 0.021

Sequence | PBM E-score of 8-mer
ATAACCGC | 0.0986 ± 0.023
AATGCACA | 0.00737 ± 0.0075
AGCTAATA | -0.00766 ± 0.01
CATCGGAA | -0.192 ± 0.016
CGAATGCC | 0.0266 ± 0.036
CCTCATCG | -0.121 ± 0.047
CTTTAGTC | -0.114 ± 0.057
ATGCCGCG | 0.0933 ± 0.021
GAGGTAGA | -0.0623 ± 0.02
CTAGACTA | -0.265 ± 0.038
GCCAGTAC | -0.0641 ± 0.077
CTTAAACA | 0.134 ± 0.011
CTAGGGGC | 0.146 ± 0.069
GACTGGAC | -0.11 ± 0.051
ACTACTGG | -0.153 ± 0.029
ATCGAGGG | -0.013 ± 0.021
CTGTCAGC | 0.224 ± 0.038
CGCAACCC | -0.0232 ± 0.042
AACACGGG | -0.00125 ± 0.0046
GGGTCATA | -0.263 ± 0.0055
ACAAATCC | 0.105 ± 0.023
CCGTAAGC | -0.113 ± 0.041
GTGGTCGA | 0.0638 ± 0.032
AGACGCAC | -0.0631 ± 0.048
CCTCGCCA | 0.148 ± 0.055

Sequence | PBM E-score of 8-mer
GGCGGCTA | -0.0524 ± 0.05
AGATCCTA | -0.201 ± 0.035
ACCCACGC | 0.235 ± 0.037
CACCTTGA | 0.367 ± 0.042
TTCGAGAA | 0.0615 ± 0.024
CCACGTGG | 0.0324 ± 0.043
GACTGGCC | 0.0473 ± 0.08
CCACGTGC | 0.114 ± 0.074
GCATCAAA | -0.16 ± 0.047
AAGACTAC | -0.0837 ± 0.0047
ATAGACTA | -0.105 ± 0.01
CCCACTAC | 0.062 ± 0.0031
CATCTACA | -0.0335 ± 0.0034
AAGCAAGT | -0.0576 ± 0.043
ATCCAAGC | -0.0883 ± 0.097
CCGAGTCG | -0.0855 ± 0.013
TAACGGCA | -0.0181 ± 0.024
AACCTGCG | 0.0936 ± 0.029
ACTCTTAA | -0.202 ± 0.085
ACTCATGC | 0.063 ± 0.0068
ACACTCAC | 0.366 ± 0.004
CGCTTTCC | -0.118 ± 0.054

— the supplement of paper PMC4166925
